Out of some 150,000 compounds screened, about 540 (0.36%) showed an effect of 50% or more. This is one part of the list.

The test system of this test is Plasmodium falciparum. Nature of the test: Primary screen in NF54 nanoGlo assay, in single point, at 2uM, 72h; a lower Z score goes with more inhibition. In kind it is functional, Erythrocyte. The note with it: timepoint 72 hour.
`Cc1nc(-c2ccccc2Cl)sc1CNC(=O)Cn1nc(C2CC2)ccc1=O`: the “% Inhibition” value is -6% and the Z score came out at 1.14.

With `CCS(=O)(=O)N(CCN1CCCCC1)C1CN(C(=O)CCn2cc(C)cn2)C1`, the “% Inhibition” value is reported as -5% and the Z score is 0.62.

As for `CNC(=O)[C@@H]1C[C@@H](NC(=O)c2cccnc2OC)CN1Cc1ccsc1`, the “% Inhibition” value was 5% and the Z score was -0.69.

Take `CCOc1ncccc1C(=O)N1CC[C@H](c2sccc2C)[C@@H](O)C1`: the “% Inhibition” value is -5% and the Z score stood at 1.

Consider `COc1ccccc1CN[C@H]1[C@H](O)[C@@H](N2CCN(C(C)=O)CC2)[C@@H]2OC[C@H]1O2`, for which the “% Inhibition” value was determined as 4% and the Z score is -0.64.

Turning to `C[C@H](NC(=O)C1CCN(S(=O)(=O)c2ccc(Cl)cc2)CC1)C(=O)N1CCCc2ccccc21`, the “% Inhibition” value was determined as 6% and the Z score is reported as -0.73.

Take `O=C(Nc1cnn(C[C@H]2COc3ccccc3O2)c1)N1CCOCC1`: the “% Inhibition” value is recorded as 11% and the Z score is given as -1.43.

For the compound `CC(C)(C)c1noc(COc2nsnc2N2CCOCC2)n1`, the “% Inhibition” value was -3% and the Z score is on record as 0.39.

`CC(NC(=O)C1CCC(=O)N1)c1ccc(-c2cccnc2)cc1` (centres undefined): the “% Inhibition” value is on record as -3% and the Z score turned out to be 0.48.

For `O=C(c1cc(-c2ccccc2)n[nH]1)N1CC[C@@H](c2cccs2)S(=O)(=O)CC1`, the “% Inhibition” value is given as -10% and the Z score was found to be 1.64.

For the compound `Cc1cc(NCc2sncc2Br)nc(C)n1`, the “% Inhibition” value is listed as -4% and the Z score stood at 0.45.

Turning to `CN(Cc1cc(F)ccc1Cl)CC(C)(C)S(C)(=O)=O`, the “% Inhibition” value is -5% and the Z score amounted to 0.54.

Turning to `COc1ccc2[nH]nc(C(=O)N3CCC([C@H](C)N4CCN(C)CC4)CC3)c2c1`, the “% Inhibition” value is on record as -2% and the Z score is 0.22.

Consider `OCC#Cc1csc(CN2C[C@H](O)[C@@H](F)C2)c1`, for which the “% Inhibition” value is given as -6% and the Z score was 0.81.

With `CCc1csc(CC2CCN(C(=O)CCc3ncccn3)CC2)n1`, the “% Inhibition” value is on record as -18% and the Z score is given as 2.94.

As for `CC(C)(C)n1nnc(CNC(=O)NCc2ccccc2-c2ccc(Cl)cc2)n1`, the “% Inhibition” value turned out to be 0% and the Z score is reported as 0.

For `CO[C@H]1COCC[C@@H]1Nc1ncc(C#N)c(N)n1`, the “% Inhibition” value was 6% and the Z score is -0.6.

As for `C=CCONC(=O)Nc1ccc(Br)cc1`, the “% Inhibition” value was -13% and the Z score was found to be 1.71.

With `Cc1nnc(CN2CC[C@@H]3OCc4cccc(c4)Oc4cc(ccc4C)C(=O)N(C)CC(=O)N[C@@H]3C2)s1`, the “% Inhibition” value is reported as -5% and the Z score worked out at 0.97.

Turning to `Cc1cc(O)ccc1C(=O)N1CC[C@H](S(=O)(=O)NC2CC2)C1`, the “% Inhibition” value is on record as -1% and the Z score amounted to 0.09.

On to `COc1cccc(C(=O)COc2cccc(N3C(=O)C4C5CCC(C5)C4C3=O)c2)c1` (centres undefined), for which the “% Inhibition” value is listed as -5% and the Z score came out at 0.67.

Take `CS(=O)(=O)N1CCC[C@@H]1CNC1CCc2cc(Cl)ccc21` (some centres undefined): the “% Inhibition” value was -12% and the Z score is listed as 1.26.

As to `COc1ccc(C(=O)Nc2ccc3nc4c(c(Nc5ccc(OC)c(OC)c5)c3c2)CCCC4)c(OC)c1`, the “% Inhibition” value is -8% and the Z score turned out to be 0.97.

With `COC(=O)[C@@](C)(O)CNc1ccc(C#N)cn1`, the “% Inhibition” value is listed as -11% and the Z score was 1.48.

For `CS(=O)(=O)N1CC(N2CC(F)(F)C[C@H]2C(=O)N2CCc3ccccc3C2)C1`, the “% Inhibition” value is -9% and the Z score turned out to be 1.04.

Regarding `O=c1cc(CN2CCN(c3ccccc3)CC2)ccn1CC1CC1`, the “% Inhibition” value is -9% and the Z score is 0.94.

Regarding `COc1ccc(CCN2C(=O)[C@H](CC(=O)NCCn3ccnc3C)N=C2O)cc1`, the “% Inhibition” value was -2% and the Z score worked out at 0.27.

Regarding `Cc1cccc2sc(OC3CN(C(=O)C4CCN(S(C)(=O)=O)CC4)C3)nc12`, the “% Inhibition” value was -11% and the Z score was 1.26.

For the compound `O=C(Cc1ccsc1)N1CCN(c2ccccn2)CC1`, the “% Inhibition” value is reported as 35% and the Z score is given as -3.92.

With `CCOc1ccc(S(=O)(=O)N(Cc2cccn2C)C2CC2)cc1F`, the “% Inhibition” value worked out at 2% and the Z score was -0.34.

On to `CC(=O)c1cccc(C(=O)N2CC[C@@]3(CCCN(CC4CC4)C3=O)C2)c1`, for which the “% Inhibition” value is listed as -20% and the Z score is recorded as 1.99.

`Cc1cc(C)n2nc(C(=O)N3CC(n4cc(CN5CCCC5=O)nn4)C3)nc2n1`: the “% Inhibition” value was -6% and the Z score was determined as 1.12.

`Cc1nc(CN2CCC(C(=O)O)(n3ccc(C(C)C)n3)CC2)c[nH]1`: the “% Inhibition” value is 10% and the Z score is listed as -1.76.

Turning to `Cn1cc(N2C[C@@H](C(=O)NCCc3noc4ccccc34)CC2=O)cn1`, the “% Inhibition” value is listed as -8% and the Z score worked out at 1.25.

With `O=C(Nc1cnn(CC(=O)N2C[C@H]3CCC[C@@H]2C3)c1)c1ccc2c(c1)OCO2`, the “% Inhibition” value is 24% and the Z score is reported as -3.

On to `Cc1cc(N)n(CC(=O)NCc2csc3c2CCCC3)n1`, for which the “% Inhibition” value was determined as 5% and the Z score was -0.98.

As to `Cc1nccn1-c1ncnc2cc(F)ccc12`, the “% Inhibition” value came to 2% and the Z score is given as -0.31.

Regarding `CCCNC(=O)N1[C@H](COc2cccnc2)CN(C)C(=O)[C@@H]1Cc1ccccc1`, the “% Inhibition” value is on record as -3% and the Z score amounted to 0.52.

`COc1ccccc1CCNC(=O)[C@@H]1C[C@H](n2cnnn2)CN1CC1CCCCC1`: the “% Inhibition” value came to 4% and the Z score is -0.73.

As for `CCc1ncc(C(=O)N[C@@H](Cc2ccccc2)C(=O)O)s1`, the “% Inhibition” value was -11% and the Z score is 1.29.

With `O=C(C(=O)N1CCN(c2ccccc2F)CC1)c1ccc2c(c1)CCC2`, the “% Inhibition” value is reported as -4% and the Z score worked out at 0.8.

On to `CN1CCN(C(=O)CCNC(=O)N2CCC[C@H]2c2ccc(F)c(F)c2)CC1`, for which the “% Inhibition” value is recorded as -9% and the Z score was 1.43.

With `CCOc1cccc2c1OCC(C(=O)n1c(N)nnc1N1CCCCC1)=C2`, the “% Inhibition” value is recorded as -2% and the Z score amounted to 0.28.

Consider `CCC(C)(C)NC(=O)Cc1cccs1`, for which the “% Inhibition” value was -7% and the Z score is recorded as 1.38.

Take `CN1C(=O)[C@@H]2CCCCN2c2ccc(C(=O)N3CCN(c4ccc(Cl)cc4)CC3)cc21`: the “% Inhibition” value is on record as 11% and the Z score is -1.61.

As to `O=C(COc1ccc(F)c(F)c1)N1CCO[C@@H](Cn2cccn2)C1`, the “% Inhibition” value is -10% and the Z score is 2.12.

With `COc1ccc(COc2c(C)nn(C)c2C)cc1F`, the “% Inhibition” value is -6% and the Z score worked out at 0.96.

In the case of `COc1ccc(CNC(C)(C)CC(C)(C)C)cc1OC`, the “% Inhibition” value is recorded as -9% and the Z score worked out at 1.4.

For `Cc1nc([C@@H]2CCCN2C(=O)c2ccnn2-c2ccccc2)cs1`, the “% Inhibition” value was 13% and the Z score is -1.5.

For `Cc1c(C(=O)N[C@@H]2COCC[C@@H]2OCC(N)=O)n(C)c2c(C)cccc12`, the “% Inhibition” value is given as 10% and the Z score is -1.19.

Turning to `Cc1nonc1NC(=O)CN1C(=O)c2ccccc2C1=O`, the “% Inhibition” value is listed as -14% and the Z score worked out at 2.55.

With `CC(C)c1nc(COC(=O)c2cc(Cl)c[nH]2)cs1`, the “% Inhibition” value was found to be 0% and the Z score was determined as 0.04.

In general, % Inhibition refers to the change of the read-out against control, counted positive when it falls.

(Values after ChEMBL document CHEMBL4888484, “Replenishing the malaria drug discovery pipeline: Screening and hit evaluation of the MMV Hit Generation Library 1 (HGL1) against asexual blood stage Plasmodium falciparum ,using a nano luciferase reporter read-out” (2022).)
